Experimental data from the supplement of paper PMC4604168 (melanoma cell lines).
The list shows a part of the results. Single values are uncertain, as repeats are few or missing.

Experiments:
Experiment in all cases: cell count relative to DMSO control; melanoma cells; higher = more viable cells
Details in all cases: library dose: standard library concentration; 72 h
SkMel28 = system: SkMel28
SkMel2 = system: SkMel2
SkMel30 = system: SkMel30
SkMel5 = system: SkMel5
UACC257 = system: UACC257
UACC62 = system: UACC62
WM115 = system: WM115
WM1716 = system: WM1716
WM1745 = system: WM1745
WM3526 = system: WM3526
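Note: cells treated in 1,536-well plates, then fixed and DAPI-stained, with nuclei counted from automated high-throughput microscope images.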

| SMILES | cell count (SkMel28) [%] | cell count (SkMel2) [%] | cell count (SkMel30) [%] | cell count (SkMel5) [%] | cell count (UACC257) [%] | cell count (UACC62) [%] | cell count (WM115) [%] | cell count (WM1716) [%] | cell count (WM1745) [%] | cell count (WM3526) [%] |
| --- | --- | --- | --- | --- | --- | --- | --- | --- | --- | --- |
| OCCn1cc(-c2cnc3nnn(Cc4ccc5ncccc5c4)c3n2)cn1 + O=c1cc(-c2cccc3c2Sc2ccccc2S3)oc(N2CCOCC2)c1 [KU55933] (first compound 5 µM, partner dose 5 µM) | 90.9 | 80.6 | 94.1 | 88 | 89.6 | 75.1 | 113 | 88.4 | 82.2 | 83.2 |
| CN(C)S(=O)(=O)c1ccc2c(c1)/C(=C/c1cc3c([nH]1)CCCC3)C(=O)N2 + Oc1cc(-c2nc(-c3ccccc3)[nH]c2-c2ccncc2)ccc1Cl [L779450] (first compound 2 µM, partner dose 1 µM) | 30.6 | 37.6 | 86.5 | 63.9 | 80.8 | 63.8 | 50.7 | 35.3 | 46.5 | 51.1 |
| C=CCn1c(=O)c2cnc(Nc3ccc(N4CCN(C)CC4)cc3)nc2n1-c1cccc(C(C)(C)O)n1 + CC(C)CCN1c2nc(Nc3cc(F)c(O)c(F)c3)ncc2N(C)C(=O)C1C [BID1870] (first compound 0.1 µM, partner dose 1 µM) | 41.4 | 65.5 | 83.7 | 66.9 | 92 | 76.1 | 72.4 | 76.9 | 53.6 | 66.5 |
| C=CCn1c(=O)c2cnc(Nc3ccc(N4CCN(C)CC4)cc3)nc2n1-c1cccc(C(C)(C)O)n1 + O=C(Nc1ccccc1)c1cc([N+](=O)[O-])ccc1Cl [GW9662] (first compound 0.1 µM, partner dose 10 µM) | 25.3 | 83.1 | 76 | 49.5 | 68.4 | 73.2 | 80.3 | 74 | 50 | 63.4 |
| OCCn1cc(-c2cnc3nnn(Cc4ccc5ncccc5c4)c3n2)cn1 + COc1cc(N2CCC(N3CCN(C)CC3)CC2)ccc1Nc1ncc(Cl)c(Nc2ccccc2S(=O)(=O)C(C)C)n1 [NVP-TAE684] (first compound 5 µM, partner dose 0.4 µM) | 78.5 | 66.2 | 111 | 73.2 | 87.3 | 98.1 | 74.5 | 72.9 | 58.5 | 79 |
| C[C@]1(c2nc3c(C(N)=O)cccc3[nH]2)CCCN1 [Veliparib] + CCN(CC)CCCCNc1ncc2cc(-c3cc(OC)cc(OC)c3)c(NC(=O)NC(C)(C)C)nc2n1 [PD173074] (first compound 7 µM, partner dose 0.5 µM) | 79.9 | 86.3 | 84 | 101 | 90.6 | 75.2 | 78.2 | 107 | 90.6 | 90.9 |
| CN(C)S(=O)(=O)c1ccc2c(c1)/C(=C/c1cc3c([nH]1)CCCC3)C(=O)N2 + N#Cc1c(O)c2c(-c3ccc(-c4ccccc4O)cc3)csc2[nH]c1=O [A769662] (first compound 2 µM, partner dose 10 µM) | 67.7 | 101 | 78.1 | 69.7 | 99.4 | 93.6 | 67.9 | 80 | 84 | 80.3 |
| C=CCn1c(=O)c2cnc(Nc3ccc(N4CCN(C)CC4)cc3)nc2n1-c1cccc(C(C)(C)O)n1 + Oc1cc(-c2nc(-c3ccccc3)[nH]c2-c2ccncc2)ccc1Cl [L779450] (first compound 0.1 µM, partner dose 1 µM) | 29.7 | 22.7 | 66 | 50.1 | 71.6 | 40.6 | 45.3 | 58.3 | 29.7 | 47.3 |
| Cc1nc(Nc2ncc(C(=O)Nc3c(C)cccc3Cl)s2)cc(N2CCN(CCO)CC2)n1 [dasatanib] + Cn1cc(/C=C2\C(=O)Nc3cccnc32)c2ccccc21 [GW441756] (first compound 0.02 µM, partner dose 2 µM) | 78.4 | 86.1 | 79.7 | 55 | 84.3 | 84.2 | 64.7 | 67.8 | 36.1 | 77.1 |
| Cc1nc(Nc2ncc(C(=O)Nc3c(C)cccc3Cl)s2)cc(N2CCN(CCO)CC2)n1 [dasatanib] + CC(C)CCN1c2nc(Nc3cc(F)c(O)c(F)c3)ncc2N(C)C(=O)C1C [BID1870] (first compound 0.02 µM, partner dose 1 µM) | 56.8 | 70.6 | 68.5 | 64.2 | 85.5 | 58.1 | 74.8 | 61.5 | 48.3 | 54.6 |
| NCC(=O)Nc1ccc(-n2nc(C(F)(F)F)cc2-c2ccc3c(ccc4ccccc43)c2)cc1 + COc1ccc(COc2ccc(Cc3cnc(N)nc3N)cc2OC)cc1 [GW2580] (first compound 5 µM, partner dose 5 µM) | 24.2 | 31.4 | 46.5 | 62.7 | 59.6 | 84.4 | 95.3 | 77.4 | 73 | 43.4 |
| NC(=O)Nc1cc(-c2cccc(F)c2)sc1C(=O)N[C@H]1CCCNC1 + COC(=O)c1sccc1S(=O)(=O)Nc1ccc(Nc2ccccc2)cc1OC [GSK0660] (first compound 0.1 µM, partner dose 5 µM) | 34.2 | 85.8 | 96 | 112 | 92.8 | 70.5 | 78.8 | 68.4 | 76.4 | 58.2 |
| C[C@]1(c2nc3c(C(N)=O)cccc3[nH]2)CCCN1 [Veliparib] + O=C(O)C(=O)Nc1sc2c(c1C(=O)O)CCNC2 [TCS401] (first compound 7 µM, partner dose 8.33333 µM) | 74.3 | 98.8 | 88.7 | 79.6 | 88.1 | 88 | 64.9 | 106 | 71.8 | 93.7 |
| C=CCn1c(=O)c2cnc(Nc3ccc(N4CCN(C)CC4)cc3)nc2n1-c1cccc(C(C)(C)O)n1 + Cc1cc([N+](=O)[O-])ccc1NS(=O)(=O)c1cc(Cl)ccc1Cl [FH535] (first compound 0.1 µM, partner dose 5 µM) | 49.9 | 79.6 | 78.3 | 67 | 69.8 | 70.9 | 80.2 | 73.9 | 72 | 79.8 |
| CN(C)S(=O)(=O)c1ccc2c(c1)/C(=C/c1cc3c([nH]1)CCCC3)C(=O)N2 + Oc1nc(-c2ccc(C(F)(F)F)cc2)nc2c1CSCC2 [XAV939] (first compound 2 µM, partner dose 10 µM) | 44.2 | 74.6 | 96.2 | 66.6 | 86.9 | 81.9 | 68.9 | 69.2 | 37.9 | 95.4 |
| CO[C@@H]1[C@H](N(C)C(=O)c2ccccc2)C[C@H]2O[C@]1(C)n1c3ccccc3c3c4c(c5c6ccccc6n2c5c31)C(=O)NC4 [Midostaurin] + O=C(Nc1ccccc1)c1cc([N+](=O)[O-])ccc1Cl [GW9662] (first compound 0.4 µM, partner dose 10 µM) | 46.8 | 51.2 | 54.6 | 43 | 53.5 | 52.9 | 34.9 | 28.1 | 23.1 | 52.5 |
| NC(=O)Nc1cc(-c2cccc(F)c2)sc1C(=O)N[C@H]1CCCNC1 + c1cc(-c2cnn3cc(-c4ccc(OCCN5CCCCC5)cc4)cnc23)ccn1 [Dorsomorphin] (first compound 0.1 µM, partner dose 2 µM) | 71.5 | 91.4 | 84.1 | 88.3 | 100 | 73.9 | 58.1 | 79.4 | 43.3 | 70.5 |
| C=CCn1c(=O)c2cnc(Nc3ccc(N4CCN(C)CC4)cc3)nc2n1-c1cccc(C(C)(C)O)n1 + N#Cc1c(O)c2c(-c3ccc(-c4ccccc4O)cc3)csc2[nH]c1=O [A769662] (first compound 0.1 µM, partner dose 10 µM) | 45 | 96.3 | 94.9 | 69.5 | 101 | 72.5 | 80.1 | 89.9 | 77.2 | 71.8 |
| NC(=O)Nc1cc(-c2cccc(F)c2)sc1C(=O)N[C@H]1CCCNC1 + NCC(=O)Nc1ccc(-n2nc(C(F)(F)F)cc2-c2ccc3c(ccc4ccccc43)c2)cc1 [OSU03012] (first compound 0.1 µM, partner dose 5 µM) | 16.3 | 16.8 | 32.7 | 32.2 | 73.3 | 48.6 | 61 | 57.7 | 50 | 31.4 |
| C[C@]1(c2nc3c(C(N)=O)cccc3[nH]2)CCCN1 [Veliparib] + CC1(C)NC(=O)N(c2ccc([N+](=O)[O-])c(C(F)(F)F)c2)C1=O [nilutamide] (first compound 7 µM, partner dose 5 µM) | 83.4 | 96 | 112 | 63.2 | 89.6 | 74.7 | 70.7 | 98.8 | 58.6 | 102 |
| NCC(=O)Nc1ccc(-n2nc(C(F)(F)F)cc2-c2ccc3c(ccc4ccccc43)c2)cc1 + COC(=O)c1sccc1S(=O)(=O)Nc1ccc(Nc2ccccc2)cc1OC [GSK0660] (first compound 5 µM, partner dose 5 µM) | 23 | 32.7 | 17.5 | 58 | 72.5 | 65.7 | 100 | 88.9 | 97.4 | 50 |
